# From the supplement of paper PMC12632987
# In all, about 4,500 sequences were measured (“median log2 fold change of GCK-ALFA target abundance (FLAG IP / Myc IP barcode read proportion)”: median about 0.078, lowest 2% from about -0.6 on). Some of the results follow.
# B1: GBRAP_125_2977 (protein)
# chain: ASEEELEDLRLVARALGLDDEDAEEAVRLAAAHSIKGTLYAIAKALGYEELAEAIAKLTEEEAREVLRRTAAYIRAHPDITPEEAVAKLLEIAEEELAKR
# B2: GBRAP_35_5565 (protein)
# chain: DFDETTAEMMANTIDALTEAVPDMDPATLLDITEKIMRAAKEVVEDIKDNKEALERLLKSLEALLAAIRAQGLDDPHLQAAAAAVQDVIDLARKAIAEAK
# B3: GBRAP_160_4491 (protein)
# chain: SAKVEEAKKEVKAIVDDAVDAIAEAPADQRAAIARAYAGDIVQTLLELGVVTDEQAETVLDTAEAGLAAVVAASAAGAAAAAAAAAALVATLNDMIKKFS
# B4: GBRAP_160_4548 (protein)
# chain: SEKVEELIKDLEERTEFLKELVGEVSTEELINAVSVEFGSFILEGIELGVLSDELEDKLDEITDKLIEELKANKNASVEEKKELIEKATEEAKKLIKEES
# B5: GBRAP_137_3684 (protein)
# chain: KTLYATIETIDGYRYVTIESDDESLAEELLDAVLDALDEHGLKATVASLVENGKAYVEIDFPTDTTKEQVLALLKDVAERLGADLVVKDLDTGETLEYKA
# B6: GBRAP_52_6345 (protein)
# chain: MLEEFKKKIEEILKLLKEGKEEEAKKKIEELAKSLKEEEIDTLIKAVAEVAAKVKKEDIDYMIKLVELLEDALLEAGHDEYDASLLESEAYKQLYKVEQK
# B7: GBRAP_18_5403 (protein)
# chain: TDEEFEAAWAALSEELQDFVAEAAADALSLEDEEERIEVLVEALVEAAEKVSPEEVRNALYLLATTVLSREEEKERLLERFIERRPELKEVAEAVLEELK
# B8: GBRAP_80_6782 (protein)
# chain: MEEEIEKAIEEIRKINPEVAEIVEEIVELLKEIGVPLEIILEIVQTILDGKDLPEEKLLEIAEEVLEFAKELAEEKDRLTPEEIGRLVLAEALTLLEEAK
# Biological target: GABARAP, O95166
# Sequence (O95166 whole entry, the tested form may be a part): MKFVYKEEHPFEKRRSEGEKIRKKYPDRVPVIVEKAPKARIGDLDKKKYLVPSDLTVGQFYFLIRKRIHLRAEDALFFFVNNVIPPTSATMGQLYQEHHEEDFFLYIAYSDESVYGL
# Test: median log2 fold change of GCK-ALFA target abundance (FLAG IP / Myc IP barcode read proportion) (log2 ratio); each designed protein is fused to an ALFA-tag nanobody in HEK293 cells to bring the named protein to FLAG-tagged glucokinase (GCK); Myc marks an untargeted standard; higher = target protein stabilised (more abundant)
# Conditions: target protein: 3xFLAG-MCP-GCK-ALFA reporter; HEK293 landing pad (RPLP)
# Procedure, shortened: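 An ALFA-nanobody-fused binder library was recombined into HEK293 landing-pad cells and induced with 2 μg mL^−1 doxycycline. Cells were transfected with a plasmid expressing a FLAG-tagged target and a Myc-tagged standard. After 48 h, lysates underwent anti-FLAG and anti-Myc immunoprecipitation, and circular RNA barcodes were reverse transcribed, amplified and sequenced. Target abundance is the per-binder median log2 ratio of FLAG to Myc barcode read proportions. Barcodes needed ≥10^−7 proportion in both replicates, binders ≥3 barcodes per replicate, and a 10^−6 pseudocount was added; the two replicates were pooled.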
row,Binder,median log2 fold change
1,B1,0.0431
2,B2,-0.138
3,B3,-1.1
4,B4,-0.16
5,B5,-0.16
6,B6,0.264
7,B7,-0.102
8,B8,0.0418
